From PubChem BioAssay (NCI)
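The compound was tested at five concentrations on cells cultured in 96-well plates, with a 48-hour exposure period. Here, GI50 denotes the concentration required for 50% inhibition of growth. TGI denotes the concentration required for complete inhibition of growth.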

Each molecule was assayed on NCI-H322M lung (assay: NCI tumour cell line growth inhibition, 48 h).

Structure (SMILES)	GI50	TGI
O=c1cc(-c2ccccc2)oc2c1ccc1ccccc12	27.1 µM	> 100 µM
OCCN(CCO)c1nc(N2CCCCC2)c2nc(N(CCO)CCO)nc(N3CCCCC3)c2n1		> 100 µM
CC1(C)N=c2cc3c(cc2N1c1ccc(Cl)cc1)=Nc1ccccc1N3c1ccc(Cl)cc1	15.6 µM	> 100 µM
CC[C@]12C=CCN3CC[C@@]4(c5ccc(OC)cc5N(C)[C@H]4[C@@](O)(C(=O)OC)[C@@H]1OC(=O)CCC(=O)O[C@H]1CC[C@H]4[C@@H]5CC[C@H]6CC(=O)CC[C@]6(C)[C@H]5CC[C@]14C)[C@@H]32	3.59 µM	> 100 µM
CC(=O)C1C(=O)C(C(C)=O)C2C3C=CC(C3)C12 (stereo not drawn)		> 100 µM
Cc1c(C(=O)Nc2ccccc2)nnn1-c1ccnc2cc(C(F)(F)F)ccc12		> 100 µM
COC(=O)/C=C\C(C#N)(C#N)N=Cc1cccs1		33 µM
O=C(O)c1ccccc1/C=C1/Cc2ccc3c(c2C1=O)CCC3		> 100 µM
CSc1ccc2c(cc1=O)C(NC(=O)c1ccccc1)CCc1cc(O)c(O)c(O)c1-2 (stereo not drawn)		53.5 µM
Nc1ncnc2c1ncn2[C@@H]1O[C@H](COP(=O)(O)OP(=O)(O)OC[C@H]2O[C@@H](OCCCO)[C@H](O)[C@@H]2O)[C@@H](O)[C@H]1O		> 100 µM
COc1ccc(-c2cc(=O)c3cc(Cl)ccc3[nH]2)cc1		> 100 µM
CCOC(=O)Nc1ccc2c(c1)C(=O)N(CC)c1ccccc1O2	0.258 µM	> 100 µM
Fc1ccc(-c2ncn(CCCN3CCOCC3)c2-c2ccncc2)cc1	> 25 µM	> 25 µM
CCC[CH2][Sn]1([CH2]CCC)[O]CC[S]1	1.53 µM	2.87 µM
C1C[OH+]CCNCC[OH+]CC[OH+]CCN1.N.[Cl-].[Pt+4]	52.8 µM	> 100 µM
C/C=C\C(CC(=O)NCCC1CN(C(=O)OCc2ccccc2)c2ccccc21)CC(=O)OC (stereo not drawn)		> 100 µM
COC(=O)c1sc2c(=O)c(C(=O)OC)c(C(=O)OC)sc2c(=O)c1C(=O)OC		> 100 µM
O=C1NC(=S)NC(=O)C1=CC1CC1		> 100 µM
CN/N=C(\C)C(CN1CCCCC1)C(C1=C(O)c2ccccc2OC1)c1ccccc1 (stereo not drawn)		> 100 µM
Cc1[nH]c2ccccc2c1C1=NO/C(=N\O)C(c2c(C)[nH]c3ccccc23)C1 (stereo not drawn)		> 100 µM
O=C1CCCCCCCCCCC1CN1CCOCC1 (stereo not drawn)		> 100 µM
COc1ccccc1/C=N/Nc1nnc2c3ccccc3c3ncccc3c2n1		> 100 µM
CCOC(=O)c1c2c(n3ccc(NC(=O)CCN4CCCCC4)cc13)C(=O)c1ncccc1C2=O	1.11 µM	2.54 µM
N#Cc1ccc(OCCSCCCCCCCCCCSCCOc2ccc(C#N)cc2)cc1		> 100 µM

Structure (SMILES)	GI50	TGI
Cc1nc(C)c(N2CCN(S(N)(=O)=O)CC2)c(=O)[nH]1		> 100 µM
O=C(O)CCSC(=O)Nc1cccc2ccccc12		> 100 µM
CC1(C)CCc2c(c(N=Nc3ccccc3F)c3ccccc3c2O)O1	27.1 µM	88.3 µM
CC1=C(SCCO)C(=O)c2ccccc2C1=O		29.1 µM
O=C(O)/C=C/c1ccc(OS(=O)(=O)O)cc1		> 100 µM
COc1ccc(NC(=O)C(C#N)=C(SC)SC)cc1		> 100 µM
O=C1c2cc3c(cc2-c2c1c1ccc(F)cc1c(=O)n2C[C@H](O)[C@H](O)[C@H](O)CO)OCO3	0.258 µM	> 100 µM
COc1cc2c(c(OC)c1OC)-c1c(c3ccc([N+](=O)[O-])cc3c(=O)n1CCCBr)C2=O	12.5 µM	> 100 µM
CN=C1CN=C(OP(=O)(N2CCOCC2)N2CCOCC2)c2cc(Cl)ccc2N1		> 100 µM
CC(C)(C)OC(=O)N1CC(C)(C)N2C(=O)C3(CCCO3)C12 (stereo not drawn)		> 100 µM
COc1cc2c3c(n(CCCn4cncn4)c(=O)c2cc1OC)-c1cc2c(cc1C3=O)OCO2	> 64.9 µM	> 100 µM
COc1ccc(CNCCCN2C(=O)c3ccc4c5c(ccc(c35)C2=O)C(=O)N(CCCNCc2ccc(OC)c(OC)c2OC)C4=O)c(OC)c1OC	0.109 µM	0.315 µM
Cc1c[nH]c(=O)n(Cc2nnc(CCC(=O)c3nc4ccccc4[nH]3)o2)c1=O	0.856 µM	> 100 µM
CC1=C[C@H]([C@H]2C=C(C)C(C(N)=O)=CN2Cc2c(Cl)cccc2Cl)N(Cc2c(Cl)cccc2Cl)C=C1C(N)=O		> 75 µM
NNC(=O)CC(=O)Nc1ccc(S(=O)(=O)c2ccc(NC(=O)CC(=O)NN)cc2)cc1		> 100 µM
O=C(Nc1cccc(C(F)(F)F)c1)c1ccc(NC2=C(Cl)C(=O)N(Cc3ccccc3)C2=O)cc1	14.7 µM	30.4 µM
CC(C)(C)OC(=O)NCCC1CNc2ccccc21 (stereo not drawn)		> 100 µM
Cc1cccc(N=Cc2ccc(N(CCC#N)S(=O)(=O)c3ccccc3)cc2C)c1		> 100 µM
CC(C)CNCCc1ccccn1		> 100 µM
COc1nc2ccc(CNc3ccc(C(=O)NC(CCC(=O)O)C(=O)O)cc3)cc2nc1OC (stereo not drawn)		> 100 µM
CC(=O)OCCCCN1C(=O)CSc2ccccc21		> 100 µM
O=C(Nc1ccccc1)c1cc(S(=O)(=O)N2CCNC2=O)c(S)cc1Cl		> 100 µM
O=C1NC(=O)C(C(c2ccc([N+](=O)[O-])cc2)C2C(=O)NC(=O)NC2=O)C(=O)N1		> 100 µM
COc1cccc(C=O)c1[O-].COc1cccc(C=O)c1[O-].[Zn+2]		> 100 µM
